PubChem BioAssay (Tox21)
The inconclusive results got no clear call from the source; some entries with a clear call stand among them for comparison. For some assays here: No potency is given beside an inconclusive call; the fits are too rough. Active and inactive are the calls of the source. Calls come from the whole dose curve; as a rule, active = well fitted curve in the direction sought with a large enough effect in the repeat runs; inconclusive = weak or mixed curves; inactive = no such curve, though single readings can be large; an effect the other way counts as inactive or inconclusive.

Legend:
[1] = qHTS RealTime-Glo MT Cell Viability Assay in HEK293 cells - 16 hour (AID 1224872); note: nearly all actives have a fitted effect of over 50% in size; note: potency is the fitted concentration of half-maximal effect
Method in brief: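 Assay medium contained NanoLuc luciferase plus cell-permeant prosubstrate, added with HEK293 cells at 600 cells/well. After 5 h at 37 C/5% CO2 compounds were added; plates stayed at 37 C for 40 h with serial luminescence reads.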

[2] = qHTS RealTime-Glo MT Cell Viability Assay in HepG2 cells - 32 hour (AID 1224877); note: nearly all actives have a fitted effect of over 55% in size
Method in brief: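 qHTS, HepG2, 600 cells/well, RealTime-Glo (NanoLuc + prosubstrate) added with cells; 5 h preincubation; DMSO compound addition; 37 C; luminescence at 0/8/16/24/32/40 h.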

[3] = qHTS RealTime-Glo MT Cell Viability Assay in HepG2 cells - 8 hour (AID 1224873); note: nearly all actives have a fitted effect of over 55% in size
Method in brief: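 HepG2 cells mixed with RealTime-Glo MT reagents (NanoLuc plus cell-permeant prosubstrate) were seeded at 600 cells/well, incubated 5 h at 37 C/5% CO2, then pinned with compounds in DMSO; nonlytic luminescence tracked viability during 40 h treatment.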

[4] = A CellTox Green Cytotoxicity Assay to monitor cytotoxicity in HepG2 cells - 16 hour (AID 1224876); note: nearly all actives have a fitted effect of over 45% in size; note: potency is the fitted concentration of half-maximal effect
Method in brief: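 Read-out is fluorescence of a cyanine dye excluded from live cells that stains DNA of dead HepG2 cells, with signal proportional to cytotoxicity. Plates were read at 0, 8, 16, 24, 32 and 40 h after compound addition.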

[5] = qHTS RealTime-Glo MT Cell Viability Assay in HEK293 cells - 40 hour (AID 1224874); details: RealTime-Glo luminescence; max response: active compounds read low; note: nearly all actives have a fitted effect of over 50% in size
Method in brief: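 Cells were seeded together with NanoLuc luciferase and a prosubstrate that viable cells reduce to a luciferase substrate. After a 5 h incubation at 37 C/5% CO2, compounds were added and luminescence was measured repeatedly during 40 h of treatment.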
% is set by controls: 0 for no effect and ±100 for the full control effect; tags give direction and shape of the fitted curve.

SMILES: Brc1cc(Br)c(Oc2cc(Br)c(Br)cc2Br)cc1Br
- Potency [1]: inactive
- Potency [2]: inactive

SMILES: Cc1cccc(C)c1OCC(C)N (configuration not stated)
- Potency [3]: inactive
- Potency [4]: inactive

SMILES: O=C1NS(=O)(=O)c2ccccc21
- Potency [1]: inactive

SMILES: CC(C)(COC(=O)c1ccccc1)COC(=O)c1ccccc1
- Potency [1]: inconclusive [cytotoxic, single point]
- Potency [4]: inactive

SMILES: CCN(Cc1ccncc1)C(=O)C(CO)c1ccccc1 (configuration not stated)
- max response [5]: inactive: 5.99%

SMILES: CCCC(=O)C(=O)O
- Potency [1]: inactive
- Potency [4]: inactive

SMILES: Cc1ncc(CO)c(CO)c1O
- Potency [1]: inactive

SMILES: OC1CCCCC1
- Potency [1]: inconclusive [cytotoxic, single point]

SMILES: O=C(OCC(O)CO)c1ccccc1Nc1ccnc2c(C(F)(F)F)cccc12 (configuration not stated)
- Potency [1]: active: 5.35 µM

SMILES: O=C(O)c1cccc(C(=O)O)c1
- Potency [3]: inactive

SMILES: C=CC(=C)CCCC(C)(C)OC(C)=O
- Potency [1]: inactive

SMILES: CCCCCCCCC=O
- Potency [4]: inconclusive [activator, full curve, poor fit]

SMILES: O=C=Nc1ccc(Cl)c(Cl)c1
- Potency [4]: inactive
